{
  "source": "paper PMC4336329",
  "about": "(PLoS ONE, 2015)",
  "note": "Screen size: about 310,000 compounds; about 14,000 (4.5%) showed an effect of 50% or more. The effect is printed as a negative number. This is one part of the list.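 Note: peak tail current of the secondary pulse compared with the same well before compound.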",
  "data": [
    {"molecular_target": "human ether-à-go-go-related gene (hERG) potassium channel (human, UniProt Q12809)", "sequence (Q12809 whole entry, looked up)": "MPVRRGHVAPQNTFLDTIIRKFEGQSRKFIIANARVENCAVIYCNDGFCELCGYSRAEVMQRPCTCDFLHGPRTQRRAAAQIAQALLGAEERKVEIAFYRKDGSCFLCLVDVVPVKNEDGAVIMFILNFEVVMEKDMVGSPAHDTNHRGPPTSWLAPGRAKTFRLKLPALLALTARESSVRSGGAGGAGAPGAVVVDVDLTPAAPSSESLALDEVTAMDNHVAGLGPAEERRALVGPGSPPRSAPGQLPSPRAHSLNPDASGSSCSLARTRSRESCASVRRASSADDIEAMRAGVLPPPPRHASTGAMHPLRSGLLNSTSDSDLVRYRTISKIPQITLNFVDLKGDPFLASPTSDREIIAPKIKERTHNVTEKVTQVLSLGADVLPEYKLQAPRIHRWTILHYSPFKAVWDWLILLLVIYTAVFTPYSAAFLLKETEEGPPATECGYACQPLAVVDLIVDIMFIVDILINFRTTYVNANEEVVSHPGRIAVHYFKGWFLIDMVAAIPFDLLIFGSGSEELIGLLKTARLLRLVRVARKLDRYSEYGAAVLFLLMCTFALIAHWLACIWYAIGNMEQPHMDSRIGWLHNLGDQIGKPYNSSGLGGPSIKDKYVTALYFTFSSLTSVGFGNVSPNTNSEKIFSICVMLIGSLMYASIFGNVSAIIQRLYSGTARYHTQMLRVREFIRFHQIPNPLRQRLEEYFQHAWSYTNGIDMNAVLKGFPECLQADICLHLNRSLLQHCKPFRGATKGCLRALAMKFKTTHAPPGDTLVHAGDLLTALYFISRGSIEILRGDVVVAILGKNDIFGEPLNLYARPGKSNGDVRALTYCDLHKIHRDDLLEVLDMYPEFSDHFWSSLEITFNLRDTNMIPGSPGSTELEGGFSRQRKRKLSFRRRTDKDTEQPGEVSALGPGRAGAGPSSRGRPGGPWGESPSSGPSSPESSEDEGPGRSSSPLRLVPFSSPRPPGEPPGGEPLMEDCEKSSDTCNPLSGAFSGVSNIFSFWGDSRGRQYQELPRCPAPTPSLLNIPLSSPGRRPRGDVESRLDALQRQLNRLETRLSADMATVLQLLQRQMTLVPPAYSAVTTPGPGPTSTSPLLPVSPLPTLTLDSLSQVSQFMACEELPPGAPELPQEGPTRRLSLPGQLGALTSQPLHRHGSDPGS", "experiment": "primary screen, population patch clamp on CHO cells stably expressing hERG", "units": {"hERG current change (%, negative = inhibition) at 10uM": "%"}, "values": [
      {"molecule": "Cc1ccc(NS(=O)(=O)c2ccc(Cl)s2)cc1S(=O)(=O)N(C)C", "hERG current change (%, negative = inhibition) at 10uM": -2.76},
      {"molecule": "CCCc1cc(C(=O)NNC(=S)NC(C)c2ccccc2)cs1", "note": "(stereo not shown)", "hERG current change (%, negative = inhibition) at 10uM": -1.15},
      {"molecule": "CN(Cc1cccc(Cl)c1Cl)CC(O)COc1ccccc1.O=C(O)C(=O)O", "note": "(stereo not shown)", "hERG current change (%, negative = inhibition) at 10uM": -12},
      {"molecule": "C=CCn1c(N/N=C/c2ccc(O)cc2)nc2ccccc2c1=O", "hERG current change (%, negative = inhibition) at 10uM": -17.9},
      {"molecule": "CCn1c(Cc2ccccc2)nnc1SCC(=O)Nc1ccccc1F", "hERG current change (%, negative = inhibition) at 10uM": -5.46},
      {"molecule": "COc1ccc(CCNC(=O)C(=O)NCc2ccccn2)cc1", "hERG current change (%, negative = inhibition) at 10uM": -5.07},
      {"molecule": "O=C1c2ccccc2CCC1C(O)c1ccccn1", "note": "(stereo not shown)", "hERG current change (%, negative = inhibition) at 10uM": 17.4},
      {"molecule": "CC(=O)N(C1=C(N)C(=O)c2ccccc2C1=O)c1ccccc1", "hERG current change (%, negative = inhibition) at 10uM": 6.29},
      {"molecule": "Cc1nc2ccccc2cc1C(=O)NCc1ccco1", "hERG current change (%, negative = inhibition) at 10uM": 2.24},
      {"molecule": "O=C(CCCN1C(=O)c2ccccc2C1=O)Nc1nc2ccccc2[nH]1", "hERG current change (%, negative = inhibition) at 10uM": 3.32},
      {"molecule": "COC(=O)C1CCN(C(=O)CN2C(=O)c3ccccc3S2(=O)=O)CC1", "hERG current change (%, negative = inhibition) at 10uM": 14.1},
      {"molecule": "NNC(=O)c1nc(-c2ccccc2)n2c1CCCCC2", "hERG current change (%, negative = inhibition) at 10uM": -0.541},
      {"molecule": "Cc1nc(N2CCN(C(=O)c3ccco3)CC2)[nH]c(=O)c1C", "hERG current change (%, negative = inhibition) at 10uM": 24.1},
      {"molecule": "Cc1ccc(NC(=S)N(CCCN2CCOCC2)Cc2cccnc2)cc1C", "hERG current change (%, negative = inhibition) at 10uM": 7.44},
      {"molecule": "CCN(CC)C(=O)N[C@H]1C[C@@H]2c3cccc4[nH]cc(c34)C[C@H]2N(C)C1", "hERG current change (%, negative = inhibition) at 10uM": -12.1},
      {"molecule": "COC(=O)C(Cc1ccccc1)NC(=O)CCCC(=O)NCc1cccc(OC)c1", "note": "(stereo not shown)", "hERG current change (%, negative = inhibition) at 10uM": 7.09},
      {"molecule": "COc1ccc(C(=O)CSc2nc(C)cc(C)n2)cc1C", "hERG current change (%, negative = inhibition) at 10uM": -29.1},
      {"molecule": "Fc1cc(NCc2ccccc2)nc(NCc2ccccc2)n1", "hERG current change (%, negative = inhibition) at 10uM": 8.4},
      {"molecule": "Cc1ccnc(NC(=O)c2cccc(S(=O)(=O)N3CCN(c4ccccc4)CC3)c2)c1", "hERG current change (%, negative = inhibition) at 10uM": -12.4},
      {"molecule": "COC(=O)CCCC1=CC2=C(c3ccccc3)C(=O)C(C)(OC(=O)C3CCCC3)C(=O)C2=CN1C1CCCCC1", "note": "(stereo not shown)", "hERG current change (%, negative = inhibition) at 10uM": -15.5},
      {"molecule": "COc1ccc(NS(=O)(=O)c2ccc3oc(SCc4ccc(F)cc4)nc3c2)cc1", "hERG current change (%, negative = inhibition) at 10uM": -1.57},
      {"molecule": "O=C(NC1=NCCS1)c1ccc(Cl)c(S(=O)(=O)N2CCCCCC2)c1", "hERG current change (%, negative = inhibition) at 10uM": -9.89},
      {"molecule": "CC(C)OC(=O)c1ccc(N2C(=O)C3CC=CCC3C2=O)cc1", "note": "(stereo not shown)", "hERG current change (%, negative = inhibition) at 10uM": 19.9},
      {"molecule": "CCCC1S/C(=N/N=C/c2ccco2)NC1=O", "note": "(stereo not shown)", "hERG current change (%, negative = inhibition) at 10uM": -9.19},
      {"molecule": "Nc1[nH]c(N=NC(=O)c2ccccc2O)c2ccccc12", "hERG current change (%, negative = inhibition) at 10uM": -34.8},
      {"molecule": "Cc1cc(C(=O)NNc2c(Cl)cccc2Cl)no1", "hERG current change (%, negative = inhibition) at 10uM": 3.46},
      {"molecule": "COc1cc(NC(=O)COc2ccccc2Cl)ccc1NC(=O)c1cccs1", "hERG current change (%, negative = inhibition) at 10uM": -12.1},
      {"molecule": "COc1ccc(CCNc2oc(Cc3ccccc3)nc2C#N)cc1OC", "hERG current change (%, negative = inhibition) at 10uM": -34.9},
      {"molecule": "Cc1ccc(S(=O)(=O)Nc2cc(Cl)ccc2-n2cncn2)cc1", "hERG current change (%, negative = inhibition) at 10uM": 15.1},
      {"molecule": "Cc1cccc(-c2onc3ccc(C(=O)/C=C/N(C)C)cc23)c1", "hERG current change (%, negative = inhibition) at 10uM": -42},
      {"molecule": "O=C(COc1ccccc1)NS(=O)(=O)c1ccccc1", "hERG current change (%, negative = inhibition) at 10uM": 2.17},
      {"molecule": "Cc1cc(C)n(-c2nc3ccccc3nc2N2CCN(C(=O)c3ccc(Cl)cc3)CC2)n1", "hERG current change (%, negative = inhibition) at 10uM": -45.7},
      {"molecule": "O=C(NCc1nc2ccccc2[nH]1)c1ccccc1F", "hERG current change (%, negative = inhibition) at 10uM": 19.1},
      {"molecule": "Cc1cc(C(=O)C(C)OC(=O)C2=NNC(=O)CC2)c(C)n1-c1ccc(OC(F)F)cc1", "note": "(stereo not shown)", "hERG current change (%, negative = inhibition) at 10uM": -73.3},
      {"molecule": "CCN(c1cccc(C)c1)S(=O)(=O)c1ccc(-n2cccn2)cc1", "hERG current change (%, negative = inhibition) at 10uM": -1.6},
      {"molecule": "C/C(CC(=O)Nc1ccc2c(c1)OCCO2)=N\\NC(=O)c1cccc(O)c1", "hERG current change (%, negative = inhibition) at 10uM": 14.3},
      {"molecule": "O=C(Nc1ccc(Br)cc1)c1cccc(OC(=S)N2CCOCC2)c1", "hERG current change (%, negative = inhibition) at 10uM": 17},
      {"molecule": "Brc1ccc(C=Nc2ccc(Nc3ccccc3)cc2)s1", "hERG current change (%, negative = inhibition) at 10uM": 9.59},
      {"molecule": "Cc1nc(SCC(=O)NC2CC2)c2c(C)c(C)sc2n1", "hERG current change (%, negative = inhibition) at 10uM": 6.21},
      {"molecule": "Cc1ccccc1NC(=O)CSc1nn2c(=O)c(C)nnc2s1", "hERG current change (%, negative = inhibition) at 10uM": 8.72},
      {"molecule": "COc1ccc(NC(=O)c2c([N+](=O)[O-])c(C(C)(C)C)nn2C)cc1", "hERG current change (%, negative = inhibition) at 10uM": 10.4},
      {"molecule": "O=C(CSC1=NS(=O)(=O)c2cc(F)ccc2N1)NCc1ccc(F)cc1", "hERG current change (%, negative = inhibition) at 10uM": -9.82},
      {"molecule": "Cn1cnnc1SCC(=O)c1c(N)n(Cc2ccccc2)c(=O)n(C)c1=O", "hERG current change (%, negative = inhibition) at 10uM": 20.4},
      {"molecule": "COc1ccccc1-n1nnnc1SCC(=O)Nc1ccccc1", "hERG current change (%, negative = inhibition) at 10uM": 17},
      {"molecule": "Cc1oc(-c2cc(F)ccc2F)nc1CN1CCC(C(=O)N2CCOCC2)CC1", "hERG current change (%, negative = inhibition) at 10uM": -42.8},
      {"molecule": "CC(c1nnnn1C(C)(C)C)N(Cc1cccnc1)Cc1ccccc1Cl", "note": "(stereo not shown)", "hERG current change (%, negative = inhibition) at 10uM": -52.3},
      {"molecule": "Cc1nc(-c2cccc(S(=O)(=O)N3CCCCCC3)c2)cs1", "hERG current change (%, negative = inhibition) at 10uM": -23.2},
      {"molecule": "COCCCN=Cc1c(C)[nH]n(-c2ccc(Br)cc2Br)c1=O", "hERG current change (%, negative = inhibition) at 10uM": 20.4},
      {"molecule": "Cc1c(OC(C)C(=O)N2C[C@H]3C[C@@H](C2)c2cccc(=O)n2C3)ccc2c3c(c(=O)oc12)CCCC3", "note": "(stereo partly shown)", "hERG current change (%, negative = inhibition) at 10uM": -22.2},
      {"molecule": "CCCS(=O)(=O)N1CCC(C(=O)NCCN2CCCC2)CC1", "hERG current change (%, negative = inhibition) at 10uM": -7.65},
      {"molecule": "COc1ccc(NC(=O)CSc2ccccc2)cn1", "hERG current change (%, negative = inhibition) at 10uM": 29.8},
      {"molecule": "O=C(CSc1ccc(-c2ccccn2)nn1)N1CCc2ccccc21", "hERG current change (%, negative = inhibition) at 10uM": 3.29},
      {"molecule": "O=C(Nc1ccc(F)c(Cl)c1)Nc1ccc(Cl)cn1", "hERG current change (%, negative = inhibition) at 10uM": 8.86},
      {"molecule": "N#Cc1cccc(CN2CCCN(Cc3ccc(F)cc3)S2(=O)=O)c1", "hERG current change (%, negative = inhibition) at 10uM": -48},
      {"molecule": "CN(C(=O)C1CCCO1)c1nnc(-c2cnccn2)s1", "note": "(stereo not shown)", "hERG current change (%, negative = inhibition) at 10uM": -1.46},
      {"molecule": "Cc1ccc2cc(C)c(SCC(=O)Nc3cc(C)on3)nc2c1", "hERG current change (%, negative = inhibition) at 10uM": 20.9},
      {"molecule": "Cc1cc(NC(=O)COC(=O)COc2ccc3c(c2)CCC3)no1", "hERG current change (%, negative = inhibition) at 10uM": 19.6},
      {"molecule": "C=CCSc1nc2c(c(=O)n(C)c(=O)n2C)n1CC", "hERG current change (%, negative = inhibition) at 10uM": -2.18}
    ]}
  ]
}
